# Results from PubChem BioAssay AID488969 (Vanderbilt High Throughput Screening Facility, 2010).
# Whole data set: some 110,000 compounds, median “z-score” near -0.1, cut for the highest 2% near 2. This is one part of the list. Calls of active or inactive are those of the source.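 Rule for the calls: active = z-score in the third read window above 3 or below -3; inactive = the rest.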
# Target: Metabotropic glutamate receptor 8 (Rattus norvegicus) (UniProt P70579)
# Assay: mGluR8 Gi/Go-coupled signaling modulation – cell-based, rat, thallium flux, HTS, primary screen (AID 488969)
# Conditions: HEK293 rat mGluR8, GIRK (G protein-gated inwardly rectifying potassium channel) thallium flux, FluoZin2; at 10 µM; stronger effect = higher value; submaximal glutamate (EC20) added with thallium
# Chain of UniProt P70579 (P70579 whole entry, looked up): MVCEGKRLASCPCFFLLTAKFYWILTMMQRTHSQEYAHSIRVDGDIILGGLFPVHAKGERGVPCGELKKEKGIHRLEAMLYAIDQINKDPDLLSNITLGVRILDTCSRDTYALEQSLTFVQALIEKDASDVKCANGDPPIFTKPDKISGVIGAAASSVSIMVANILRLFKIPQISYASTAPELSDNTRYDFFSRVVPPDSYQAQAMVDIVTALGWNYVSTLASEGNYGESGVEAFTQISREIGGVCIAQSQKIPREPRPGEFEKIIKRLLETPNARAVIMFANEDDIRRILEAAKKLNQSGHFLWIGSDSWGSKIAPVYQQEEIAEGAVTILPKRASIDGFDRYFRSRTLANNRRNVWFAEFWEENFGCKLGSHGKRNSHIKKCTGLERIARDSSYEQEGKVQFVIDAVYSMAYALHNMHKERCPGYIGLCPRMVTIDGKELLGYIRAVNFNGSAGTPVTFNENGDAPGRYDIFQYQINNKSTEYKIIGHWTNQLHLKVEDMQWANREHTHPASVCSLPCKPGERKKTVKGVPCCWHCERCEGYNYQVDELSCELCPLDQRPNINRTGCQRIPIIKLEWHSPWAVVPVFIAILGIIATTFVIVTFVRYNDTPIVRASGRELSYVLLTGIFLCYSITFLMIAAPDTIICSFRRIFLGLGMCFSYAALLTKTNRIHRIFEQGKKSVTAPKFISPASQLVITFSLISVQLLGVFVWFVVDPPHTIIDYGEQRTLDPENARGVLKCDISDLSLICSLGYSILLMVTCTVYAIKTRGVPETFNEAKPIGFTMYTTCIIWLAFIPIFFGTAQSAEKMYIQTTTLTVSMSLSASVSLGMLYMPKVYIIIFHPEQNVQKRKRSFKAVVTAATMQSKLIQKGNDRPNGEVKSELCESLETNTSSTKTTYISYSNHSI
row,Compound,z-score
1,CCn1cc(Br)c(C(=O)N(C)Cc2ccccc2)n1,0.274
2,CCO/C=C1/C(=O)N(C)C(=O)c2cc(OC)ccc21,-0.509
3,COc1cc2c(C(=O)N3CCN(c4ccccc4)CC3)c(C)oc2cc1Br,-1.19
4,O=C(/C=C/c1ccccc1)N/C(=C\c1ccco1)C(=O)NCCO,-0.177
5,CCOC(=O)c1c(C)[nH]c(N=Nc2ccc(C)cc2C)c1C,0.245
6,O=C(/C=C/c1ccc(-c2ccccc2[N+](=O)[O-])o1)c1ccc(Br)cc1,-0.124
7,COc1ccc(-n2c(C)cc(C(=O)Cn3nnc4ccccc4c3=O)c2C)cc1,-0.0888
8,CN(CC(=O)NCc1ccccn1)S(=O)(=O)c1ccccc1,-0.487
9,CC1(C)Cc2cccc(OCC(=O)N3CCN(S(=O)(=O)c4ccc(F)cc4)CC3)c2O1,0.167
10,CN1C2=NCCN2C(=O)c2ccccc21,-0.163
11,CC(C)c1cc(N2CCN(C(=O)c3ccco3)CC2)n2c(nc3ccccc32)c1C#N,-0.614
12,COc1nnc(-c2ccc(N3CCCCC3)c(NC(=O)C3CCCCC3)c2)c2ccccc12,-0.3
13,CC(C)(C)n1ncc(Oc2ccc(Oc3cnn(C(C)(C)C)c(=O)c3Cl)cc2)c(Cl)c1=O,0.804
14,COC(=O)c1ccc(NS(=O)(=O)c2ccc(OC)cc2)cc1,0.37
15,COc1ccc(S(=O)(=O)n2ccnc2)c2cccnc12,-0.239
16,CC(/C=C/c1ccco1)=N/NC(=O)Cc1cccs1,0.472
17,Cc1ccc(-c2nnc(SCC(=O)N/N=C/c3c(C)nn(-c4ccccc4)c3C)n2-c2ccc(C)cc2)cc1,-1.37
18,COc1nccnc1NS(=O)(=O)c1ccc(NC(=S)NC(=O)c2ccccc2F)cc1,-0.299
19,COC(=O)c1nnn(-c2nonc2N)c1CSc1ccc(Cl)cc1,0.549
20,C/C(=N\O)C(=O)NCC1CCNCC1,-1.03
21,CC(NC(=O)c1ccncc1)C(C)(C)C (configuration not stated),-0.462
22,Nc1ccc(C(=O)OCc2csc(-c3ccccc3)n2)cc1[N+](=O)[O-],0.00351

row,Compound,z-score
1,O=S(=O)(N/N=C\c1ccc2c(c1)OCO2)c1ccc(Cl)cc1,-0.14
2,Cc1ccc(N=Nc2c(N)[nH]n3c(=O)c4c(nc23)CCCC4)cc1,-0.696
3,CCOC(=O)c1cc(-c2ccc(Cl)cc2)nc2c1c(C)nn2CCC#N,active: 3.13
4,CCOc1ccc(C(C)=O)cc1Cn1nc(C(=O)O)c2ccccc2c1=O,-0.745
5,CCOC(=O)c1c(NC(=S)Nc2ccccc2)sc2c1CCN(CCc1ccccc1)C2,0.012
6,O=C(/C=C/c1cccs1)c1ccc(Br)cc1,0.0153
7,O=C(Nc1cccc(C(F)(F)F)c1)N(Cc1ccc(Cl)cc1)CC(O)C(F)(F)F (configuration not stated),0.0136
8,CN(C(=O)C1CCCO1)c1nnc(-c2ccncc2)s1 (configuration not stated),-0.579
9,CSCC[C@H](NC(=O)C(C)(C)Oc1ccc(Cl)cc1)c1nc2ccccc2[nH]1,-0.153
10,Cc1nn(C)c(C)c1C1Nc2ccccc2C(=O)N1O (configuration not stated),0.0427
11,O=C(COc1ccc(S(=O)(=O)Nc2ccccc2)cc1)NCc1cccnc1,-0.0839
12,CC(C)Oc1ccc(OCCNC2CCCC2)cc1,-0.0109
13,CCN(C(N)=S)c1ccccc1,-0.0774
14,CCCn1c(CC)nc([N+](=O)[O-])c1Sc1ccc(F)cc1,-0.87
15,CCCCn1nc2cc(C(=O)NCC34CC5CC(CC(C5)C3)C4)ccc2c1OCC,-0.142
16,Cc1ccc(S(=O)(=O)CCC(=O)OCC(=O)Nc2ncc(Cl)cc2Cl)cc1,0.131
17,c1ccc(Cn2c(CSc3nnnn3-c3ccccc3)nc3ccccc32)cc1,-0.165
18,Cc1cc(-n2c(C)cc(C(=O)CN3C(=O)NC4(CCCC4)C3=O)c2C)no1,0.226
19,O=C(CSc1nnc(-c2ccccn2)n1Cc1ccco1)c1ccccc1,1.88
20,CCC(CC)C(=O)NCCc1ccc(OC)cc1,-0.246
21,Cn1nc(C(=O)N2CCOCC2)c([N+](=O)[O-])c1C(=O)N1CCOCC1,-0.0601
22,CC12CCCc3c(O)cc(=O)n(c31)-c1ccccc12 (configuration not stated),-1.16

row,Compound,z-score
1,C=CCn1c(SCCC)nc2sc3c(c2c1=O)CCc1ccccc1-3,-0.0297
2,CSc1nncc(/C(C)=N\Nc2ccccc2C)n1,-0.0694
3,CCOC(=O)N1CCN(C(=O)CN(C2CCCCC2)S(C)(=O)=O)CC1,0.489
4,Cc1ccc(NC(=O)Cn2nc(C(F)(F)F)c3c2CCC3)cc1,-1.11
5,Cc1ccc(N(CC(=O)Nc2ccc(C)cc2C)S(=O)(=O)N2CCCC2)cc1,-0.379
6,CN(C)c1ccc(N=C/C=C2/N(C)c3ccccc3C2(C)C)cc1,0.909
7,C=CCNC(=O)/C(C#N)=C/c1cn(-c2ccccc2)nc1-c1cccs1,-0.0995
8,COc1cc(C(=O)Nc2c(C)cc(C)cc2C)c([N+](=O)[O-])cc1OC,-0.304
9,O=C(Nc1cccc2[nH]ncc12)c1ccc(F)cc1,-0.0429
10,COC(=O)c1cc(C(=O)N(Cc2ccccc2)c2ccccn2)cc([N+](=O)[O-])c1,-0.435
11,CCOC(=O)c1c(C)sc(Sc2ccc(Cl)cc2[N+](=O)[O-])c1OC,-0.412
12,Cc1cccc(N/N=C(\C(N)=O)C2=NC(C)(C)Cc3ccccc32)c1,-0.302
13,CCOC(=O)c1ccc(N2C(=O)c3n[nH]c(C)c3C2c2ccc(OC)cc2OC)cc1 (configuration not stated),-0.325
14,C=CCn1c(SCc2ccc3c(c2)OCO3)nc2scc(-c3ccco3)c2c1=O,-0.276
15,Cc1nn(-c2ccccc2)c(N2CCCC2)c1/C=N/NC(=O)c1cc(-c2ccccn2)nc2ccccc12,-0.211
16,CCOC(=O)c1c(NC(=O)COC(=O)Cn2c(C(F)(F)F)nc3ccccc32)sc(C)c1C,0.193
17,CCOC(=O)c1sc(=S)sc1SCc1cccc(C(F)(F)F)c1,-0.0513
18,O=C(NCc1ccco1)c1ccccc1NS(=O)(=O)c1ccc(Br)s1,-0.938
19,CSc1n[nH]c(NCc2ccccc2)n1,-0.326
20,O=C(Nc1ccc(S(=O)(=O)N2CCN(c3ccccc3)CC2)cc1)c1cccs1,0.314
21,C=CCn1c(SCC(=O)N2CC(=O)Nc3ccccc32)nc2scc(-c3cccs3)c2c1=O,-0.201
22,O=C(NCCCN1CCCC1=O)Nc1ccc(Cl)cc1,0.0955

row,Compound,z-score
1,CCOc1cc(/C=N/NC(=O)Cn2nc([N+](=O)[O-])cc2C)cc(Br)c1OCc1ccccc1F,-0.0118
2,CCOCCCNC(=O)C(NC(=O)c1cnccn1)c1ccc(C)cc1 (configuration not stated),-0.074
3,O=C1CSC(c2cn(-c3ccccc3)nc2-c2ccc3c(c2)OCCO3)N1CCN1CCOCC1 (configuration not stated),-0.686
4,CC(=O)N(Cc1cccs1)C1CCOC(C)(C)C1 (configuration not stated),-0.145
5,CC(C)CN(C(=O)COC(=O)C12CC3CC(CC(O)(C3)C1)C2)C1CCS(=O)(=O)C1 (configuration not stated),-0.449
6,COc1ccc(CCNC(=O)CSc2nn(-c3ccccc3)c(=S)s2)cc1OC,-0.438
7,COc1ccc(NC(=O)CS(=O)CC(=O)Nc2cc(Cl)ccc2OC)cc1 (configuration not stated),0.00382
8,O=C(NCCCn1ccnc1)C1CC(c2cccc(Br)c2)=NO1 (configuration not stated),0.193
9,CC(=O)c1c(NCCc2ccccc2)cc(C)oc1=O,-0.739
10,CC(NC(=O)NC1CCCCC1)c1ccccc1 (configuration not stated),-0.00749
11,COc1ccc(CNC(=O)C/C(C)=N/NC(=O)C(c2ccccc2)c2ccccc2)cc1,-1.15
12,Cc1ccc(NC(=O)C(NC2CCCc3ccccc32)c2ccccc2)c([N+](=O)[O-])c1 (configuration not stated),2.09
13,COC(=O)C(Cc1cnc(Cl)s1)(C(=O)OC)c1ccccc1[N+](=O)[O-],0.111
14,Cc1cc(C)cc(N2C(=O)CC(N3CCOCC3)C2=O)c1 (configuration not stated),0.58
15,CC(C)CC(NC(=O)c1ccc(Cl)cc1Cl)C(=O)O (configuration not stated),-0.413
16,CC(=O)c1cccc(NC(=O)c2ccc(NS(C)(=O)=O)cc2)c1,-0.67
17,Cc1ccc(OCC(O)Cn2c(N3CCOCC3)nc3c2c(=O)[nH]c(=O)n3C)cc1 (configuration not stated),0.225
18,C#CC(CC)(CC)NC(=S)Nc1ccc(S(N)(=O)=O)cc1,-0.581
19,CCOC(=O)CSc1c(-c2ccccc2)c2cc(Cl)ccc2[nH]c1=O,-0.516
20,CCCn1c(=N)n(CC(O)c2ccco2)c2ccccc21 (configuration not stated),0.907
21,COc1ccc(NC(=O)CNS(=O)(=O)c2cccs2)c(OC)c1,-0.279
22,COc1cc(NS(=O)(=O)c2ccc(NC(=O)COc3ccc(C)cc3C)cc2)nc(OC)n1,-0.0792

row,Compound,z-score
1,CCNC(=O)c1cc(Br)ccc1Cl,-0.416
2,O=C(NC(CC(=O)N1CCN(c2ccccc2)CC1)c1ccccc1)c1ccccc1Cl (configuration not stated),-0.37
3,CCN(CC)S(=O)(=O)c1cccc(C(=O)N/N=C/c2cc(OC)c(O)c(OC)c2)c1,-0.593
4,CC(C)(C)NC(=O)NC(=O)COC(=O)C1=COCCO1,0.249
5,O=C(COc1ccccc1)Nc1nc(-c2ccc(S(=O)(=O)N3CCOCC3)cc2)cs1,-0.105
6,Cc1cc2n(n1)C(c1ccc(N(C)C)cc1)Nc1ccccc1-2 (configuration not stated),-0.077
7,COc1ccccc1N1CCN(CC(=O)Nc2ccc(Cl)c(C(F)(F)F)c2)CC1,0.377
8,Cn1nc(C(=O)NCC2CCCO2)c2ccccc2c1=O (configuration not stated),-0.154
9,COC(=O)c1ccc2c(=O)n(CCCCCC(=O)NCc3ccc4c(c3)OCO4)c(=O)[nH]c2c1,0.613
10,CC(C)(C)c1ccc2c(c1)OC(C(=O)N/N=C\c1ccccn1)CO2 (configuration not stated),0.0186
11,O=C(N/N=C1/C(=O)c2cccc3cccc1c23)c1ccc(Cl)cc1,active: 3.2
12,Nc1nonc1-c1noc(CCCCCN2C(=O)c3ccccc3C2=O)n1,-0.386
13,O=C(Nc1c(C(=O)Nc2cccc(F)c2)oc2ccccc12)c1ccc2c(c1)OCO2,-0.0192
14,O=C1CCC(=O)N1c1nc2n(n1)C(c1ccccc1)C=C(c1ccc(Br)cc1)N2 (configuration not stated),1.09
15,COc1ccc(NC(C)=O)cc1NC(=O)CSc1nnc(-c2cccnc2)n1C,0.416
16,CCC(=O)c1ccccc1OCCCN1C(=O)NC(C)(C)C1=O,0.365
17,Cc1cc(C)c(C(=O)OCCNC(=O)c2cccnc2)cc1C,0.326
18,Cc1cc(F)ccc1NCc1cccnc1,-0.116
19,CCCc1nc(SCC(=O)Nc2ccc(N3CCOCC3)cc2)c2ccccc2n1,0.0725
